{
  "source": "PubChem BioAssay AID485294",
  "about": "(National Center for Advancing Translational Sciences (NCATS), 2010)",
  "note": "Hit rate of the full screen: of about 370,000 compounds, about 150 (0.041%) were called active. This list was built around the results that the source calls inconclusive (neither active nor inactive); the mix of calls is not that of the screen. The call rests on the fitted dose curve; in most records, active means well fitted inhibition curve with a large enough effect; inconclusive means small, poorly fitted or top-dose-only effect; inactive means flat fitted curve, though single readings scatter. Potencies of inconclusive entries are left out as doubtful fits. Potency means the concentration at half of the fitted maximal effect; tags describe the fitted curve by direction and shape.",
  "data": [
    {"biological_target": "Beta-lactamase (Escherichia coli (strain K12)) (UniProt P00811)", "sequence (P00811 whole entry, looked up)": "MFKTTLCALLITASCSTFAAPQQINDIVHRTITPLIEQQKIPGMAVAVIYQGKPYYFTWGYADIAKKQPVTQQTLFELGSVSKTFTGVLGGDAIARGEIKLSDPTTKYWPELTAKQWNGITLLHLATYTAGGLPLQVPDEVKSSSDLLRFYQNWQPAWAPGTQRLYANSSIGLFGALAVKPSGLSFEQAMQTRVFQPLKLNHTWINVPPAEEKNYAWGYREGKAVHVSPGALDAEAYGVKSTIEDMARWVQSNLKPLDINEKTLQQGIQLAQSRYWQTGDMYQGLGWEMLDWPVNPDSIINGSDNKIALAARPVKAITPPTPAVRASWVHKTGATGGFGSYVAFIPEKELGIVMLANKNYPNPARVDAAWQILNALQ", "assay": "qHTS Inhibitors of AmpC Beta-Lactamase (assay with detergent); further: nearly all actives have a fitted effect of over 25% in size", "conditions": "AmpC hydrolysis of nitrocefin, absorbance 480 nm, 0.01% Triton; series mostly up to 114 µM", "in_short": "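20 mM phosphate pH 7.0 + 0.01% (detergent screen) or 0.0001% Triton X-100; 5.3 nM AmpC reagent; cpd preinc 15 min RT; nitrocefin (800 uM stock) to start; A480 q20 s × 4 min; Activity was normalised to no-enzyme and no-compound control wells.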", "values": [
      {"smiles": "CCCNC(=O)c1nc2ncc(Br)cn2n1", "Potency": "inconclusive [inhibitor, partial curve, poor fit]"},
      {"smiles": "CCN(C(=O)Cn1c(=O)n(CC2CCC(C(=O)NC)CC2)c(=O)c2sccc21)c1ccccc1", "note": "(configuration not stated)", "Potency": "inactive"},
      {"smiles": "CC(C)NC(=O)NC(=O)CSc1nnc(COc2ccccc2F)n1C(C)C1CC2CCC1C2", "note": "(configuration not stated)", "Potency": "inconclusive [inhibitor, partial curve, poor fit]"},
      {"smiles": "C/C(=C\\C(=O)c1ccccc1)NNC(=O)c1ccc(Cl)cc1", "Potency": "inconclusive [inhibitor, partial curve, poor fit]"},
      {"smiles": "COc1ccc(C(=O)N2CCN(c3ccc(C)c(C)c3)CC2)cc1OC", "Potency": "inconclusive [inhibitor, partial curve]"},
      {"smiles": "Cc1cccc(N2CCN(S(C)(=O)=O)CC2)c1C", "Potency": "inconclusive [inhibitor, full curve, poor fit]"},
      {"smiles": "O=C(CN1C(=O)c2ccccc2S1(=O)=O)N1CCN(c2ccccc2F)CC1", "Potency": "inactive"},
      {"smiles": "COc1cccc(-c2noc(C3CCCN(C(=O)c4ccccc4OC)C3)n2)c1", "note": "(configuration not stated)", "Potency": "inactive"},
      {"smiles": "COc1cccc(Cn2c(CNS(=O)(=O)c3ccc4c(c3)CCCC4)nc3cccnc32)c1", "Potency": "inactive"},
      {"smiles": "CCN(CC)N=Nc1ccc(C(=O)O)cc1", "Potency": "inconclusive [inhibitor, full curve, poor fit]"},
      {"smiles": "N#C/C(=C/c1ccccc1[N+](=O)[O-])c1nnc2n1CCCCC2", "Potency": "inactive"},
      {"smiles": "O=C1N=C(N2CCc3ccccc3C2)S/C1=C\\c1ccc(O)cc1", "Potency": "inconclusive [inhibitor, single point]"},
      {"smiles": "COc1ccccc1C(=O)Nc1nc2nc(C)c(Cc3ccccc3)c(=O)n2[nH]1", "Potency": "inactive"},
      {"smiles": "CN(C)S(=O)(=O)c1ccc(Cl)c(NC(=O)CN2CCCCCC2)c1", "Potency": "inactive"},
      {"smiles": "O=C(NCCCO)c1ccc2[nH]c3c(c2c1)CCCC3", "Potency": "inconclusive [inhibitor, full curve, poor fit]"},
      {"smiles": "CC(SC1=Nc2ccccc2C2CC=NN12)C(=O)NC1(C#N)CCCCC1", "note": "(configuration not stated)", "Potency": "inconclusive [inhibitor, single point]"},
      {"smiles": "Cc1ccccc1CNC(=O)CCC(=O)N1CC2CCCN2c2ccccc21", "note": "(configuration not stated)", "Potency": "inconclusive [inhibitor, full curve, poor fit]"},
      {"smiles": "O=C(Nc1c2c(nc3ccccc13)CCCC2)c1cccc([N+](=O)[O-])c1", "Potency": "inconclusive [inhibitor, full curve]"},
      {"smiles": "O=C(CN(CC1CCCO1)C(=O)CNS(=O)(=O)c1ccc(Cl)cc1)NC1CCCC1", "note": "(configuration not stated)", "Potency": "inconclusive [inhibitor, single point]"},
      {"smiles": "Cn1cc([N+](=O)[O-])c(C(=O)Nc2cc(Oc3cccnc3)cc([N+](=O)[O-])c2)n1", "Potency": "inconclusive [inhibitor, full curve, poor fit]"},
      {"smiles": "CCn1cc(/C=N\\NC(=O)c2ccc(F)cc2)cn1", "Potency": "inconclusive [inhibitor, partial curve, poor fit]"},
      {"smiles": "CSCCC(NC(=O)c1ccco1)C(=O)OCC(=O)Nc1ncc(Cl)c(C)c1Cl", "note": "(configuration not stated)", "Potency": "inconclusive [inhibitor, single point]"},
      {"smiles": "COc1ccc(C)cc1Nc1n[n+](-c2ccccc2)c(-c2ccc(NC(C)=O)cc2)s1", "Potency": "inconclusive [inhibitor, full curve]"},
      {"smiles": "CN(Cc1nc2c(s1)CCCC2)C(=O)CCc1nnc(-c2ccccc2)o1", "Potency": "inactive"},
      {"smiles": "COc1cc(NC(=S)NC2CC2)c(OC)cc1Cl", "Potency": "inactive"},
      {"smiles": "S=C1NC(c2ccccc2)=NCN1c1ccc(Cl)cc1", "Potency": "inconclusive [inhibitor, single point]"},
      {"smiles": "O=C(COC(=O)CSCc1ccccc1)NCc1ccccc1", "Potency": "inconclusive [inhibitor, full curve, poor fit]"},
      {"smiles": "CN1C(C(=O)NCC2CC2)CC2Cn3c(nc4cc5ccccc5cc43)C21", "note": "(configuration not stated)", "Potency": "inactive"},
      {"smiles": "Oc1ccccc1-c1cc(-c2ccc(F)cc2)n[nH]1", "Potency": "inconclusive [inhibitor, full curve, poor fit]"},
      {"smiles": "OC(CN1CCOCC1)c1ccc(F)cc1", "note": "(configuration not stated)", "Potency": "inconclusive [inhibitor, full curve, poor fit]"},
      {"smiles": "CN1C(=O)CC(N2CCC(c3nc4ccccc4[nH]3)CC2)C1=O", "note": "(configuration not stated)", "Potency": "inconclusive [inhibitor, partial curve, poor fit]"},
      {"smiles": "Cc1ccccc1Cn1ccc(NC(=O)c2onc(C)c2Cl)n1", "Potency": "inactive"},
      {"smiles": "CC(=O)N(Cc1cc(=O)[nH]c2ccccc12)c1ccccc1", "Potency": "inconclusive [inhibitor, single point]"},
      {"smiles": "Cc1ccc(CC2C(=O)N(c3ccc(F)cc3)C(=O)C2C)cc1", "note": "(configuration not stated)", "Potency": "inconclusive [inhibitor, full curve, poor fit]"},
      {"smiles": "Cc1ccc(OCC(=O)N2CC3(C)CC2CC(C)(C)C3)cc1", "note": "(configuration not stated)", "Potency": "inconclusive [inhibitor, partial curve, poor fit]"},
      {"smiles": "CCOC(=O)CC(=O)CSc1nnc2c(n1)[nH]c1ccccc12", "Potency": "inactive"},
      {"smiles": "COc1ccc(C(C(=O)NC2CCCCC2)N(C(=O)c2sc(C)nc2C)c2ccccc2)cc1", "note": "(configuration not stated)", "Potency": "inconclusive [inhibitor, single point]"},
      {"smiles": "CCN(CC(=O)Nc1ccc(NC(C)=O)cc1)C(=O)c1ccc(C(=O)c2ccccc2)cc1", "Potency": "inconclusive [inhibitor, partial curve]"},
      {"smiles": "COc1ccc(/C=C/C(=O)Nc2cccc(S(=O)(=O)NC3=NCCCCC3)c2)cc1", "Potency": "inconclusive [inhibitor, single point]"},
      {"smiles": "COc1cc(C(=O)NCc2cc3ccccc3n2C)cc(OC)c1OC", "Potency": "inactive"},
      {"smiles": "Cc1ccc(C(=O)NC(=S)N2CCN(c3cc(C)ccc3C)CC2)cc1", "Potency": "inactive"},
      {"smiles": "Cc1ccccc1N(CC(=O)Nc1ccc(F)cc1)S(C)(=O)=O", "Potency": "inactive"},
      {"smiles": "Cc1ccc(NC(=O)Cc2coc3c(C)c(C)ccc23)cc1Cl", "Potency": "inactive"},
      {"smiles": "COc1ccc(Cl)cc1C(=O)N1CCN(Cc2ccc3c(c2)OCO3)CC1", "Potency": "inconclusive [inhibitor, partial curve, poor fit]"},
      {"smiles": "COc1ccc(CC(=O)Nc2ccc(-c3csc(C)n3)cc2)cc1", "Potency": "inconclusive [inhibitor, full curve, poor fit]"},
      {"smiles": "CCC1CCCCN1CCCNC(=O)c1ccc2nc(N3CCC(C)CC3)sc2c1", "note": "(configuration not stated)", "Potency": "inconclusive [inhibitor, full curve, poor fit]"},
      {"smiles": "Cc1cc([N+](=O)[O-])ccc1NC(=O)C1CCCO1", "note": "(configuration not stated)", "Potency": "inconclusive [inhibitor, full curve, poor fit]"},
      {"smiles": "CCOC(=O)c1nn(-c2cccc(C)c2)cc1C(=O)c1ccccc1", "Potency": "inconclusive [inhibitor, full curve, poor fit]"},
      {"smiles": "CCOC(=O)c1nnn(-c2nonc2N)c1COc1ccccc1", "Potency": "inconclusive [inhibitor, full curve]"},
      {"smiles": "CCOc1ccc(-n2c(=O)c3c(C)c(C)sc3n(Cc3cc(=O)n4cc(Cl)ccc4n3)c2=O)cc1", "Potency": "inactive"},
      {"smiles": "COc1ccc(-n2nc(C(=O)NCC(=O)Nc3cc(Cl)c(OC)cc3OC)c3ccccc3c2=O)cc1", "Potency": "inactive"},
      {"smiles": "CCCCCn1c(=O)c(C(=O)NCc2ccncc2)c(O)c2ccccc21", "Potency": "inactive"},
      {"smiles": "CCOC(=O)c1ccc(S(=O)(=O)N2CCC(C(=O)O)CC2)cc1", "Potency": "inconclusive [inhibitor, partial curve, poor fit]"},
      {"smiles": "CS(=O)(=O)c1ccccc1-c1nc(-c2cc(C(F)(F)F)cc(C(F)(F)F)c2)no1", "Potency": "inconclusive [inhibitor, partial curve]"},
      {"smiles": "COc1cccc(-c2cc(C(=O)Nc3nc4ccccc4s3)c3ccccc3n2)c1", "Potency": "inconclusive [inhibitor, single point]"},
      {"smiles": "CCCOP(=O)(O)c1c([N+](=O)[O-])cc(C(F)(F)F)cc1[N+](=O)[O-]", "note": "(tested in a mixture with another compound)", "Potency": "inconclusive [inhibitor, full curve, poor fit]"},
      {"smiles": "CCOc1ccc(S(=O)(=O)N(C(=O)c2ccncc2)c2ccc3oc(C)c(C(=O)OC)c3c2)cc1", "Potency": "inactive"},
      {"smiles": "COc1cc(C)ccc1S(=O)(=O)NC1CC(C)(C)NC(C)(C)C1", "Potency": "inconclusive [inhibitor, full curve, poor fit]"},
      {"smiles": "CC(C)N(Cc1cc2ccccc2[nH]c1=O)C(=O)C(C)(C)C", "Potency": "inconclusive [inhibitor, full curve, poor fit]"},
      {"smiles": "COC(=O)Cn1ncn2c(cc3oc(C)cc32)c1=O", "Potency": "inactive"},
      {"smiles": "CC(C)Cn1c(CN2CCCCC2C)nc2c1c(=O)n(C)c(=O)n2C", "note": "(configuration not stated)", "Potency": "inconclusive [inhibitor, full curve, poor fit]"},
      {"smiles": "CCOC(=O)c1nn(-c2ccc3ccccc3c2)cc1O", "Potency": "inactive"},
      {"smiles": "Cc1ccc(N(CN2CCCC2=O)C(=O)c2ccc(C)c(C)c2)cc1", "Potency": "inconclusive [inhibitor, partial curve]"},
      {"smiles": "CCCCCCCCOc1ccc(C2OC34CCCCC3C(C#N)(C#N)C2(C#N)C(=N)O4)cc1", "note": "(configuration not stated)", "Potency": "inconclusive [inhibitor, partial curve]"},
      {"smiles": "Cc1ccc(S(=O)(=O)Cc2ccc(C(=O)N3CCN(Cc4ccccc4)CC3)o2)cc1", "Potency": "inconclusive [inhibitor, partial curve, poor fit]"},
      {"smiles": "O=S(=O)(Nc1ccc(-c2cn3cccnc3n2)cc1)c1ccccc1", "Potency": "inactive"},
      {"smiles": "O=C(Cn1c(=O)n(Cc2ccccc2)c(=O)c2cc(Cl)ccc21)NCC1CCCO1", "note": "(configuration not stated)", "Potency": "inconclusive [inhibitor, single point]"}
    ]}
  ]
}
